# Laboratory results as given in article PMC6643034.
# Amino acid sequences for entries named in this document (tags omitted). Residues count along the entry.
# UniProt P02778, residues 22-98: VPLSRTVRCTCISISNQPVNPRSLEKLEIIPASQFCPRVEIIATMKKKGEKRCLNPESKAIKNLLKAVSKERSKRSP
# UniProt O14625, residues 22-94: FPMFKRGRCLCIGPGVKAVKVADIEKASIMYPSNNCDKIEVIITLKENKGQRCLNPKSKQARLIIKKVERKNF
# UniProt P48061, residues 22-93: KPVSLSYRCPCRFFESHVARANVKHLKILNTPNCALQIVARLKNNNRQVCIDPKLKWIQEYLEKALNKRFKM
# UniProt O43927, residues 23-109: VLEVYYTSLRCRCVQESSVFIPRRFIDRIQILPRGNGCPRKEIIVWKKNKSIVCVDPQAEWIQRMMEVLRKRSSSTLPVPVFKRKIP
# UniProt P09341, residues 35-107: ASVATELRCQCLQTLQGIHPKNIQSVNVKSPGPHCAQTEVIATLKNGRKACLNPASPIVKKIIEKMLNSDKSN
# Results are given in words; binding and its absence hold for the method and conditions named. Some binding calls cover weakened binding; strength is not graded here. For part of these data: Where a sequence is shown, tags or fusion partners need not be part of it.
# How the values were obtained:
# [1] = molecular target: T1, Evasin 3 (EVA3) (Rhipicephalus sanguineus) (UniProt P0C8E8); assay: BLI; OctetRed; evasin held on a nickel-coated biosensor by its C-terminal His tag; cross-binding screen of a panel of human chemokines at 300 nM; both purified
# T1 sequence (chain, glycosylated (periodic acid–Schiff staining)): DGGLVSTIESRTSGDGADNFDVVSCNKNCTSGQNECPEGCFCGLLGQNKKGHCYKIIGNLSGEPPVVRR
# [2] = molecular target: T2, EVA3_RHISA (Rhipicephalus sanguineus) (UniProt P0C8E8); assay: BLI; cross-binding screen on OctetRed; evasin held on a nickel-coated biosensor through its C-terminal His tag; each human chemokine at 300 nM; both purified
# T2 sequence: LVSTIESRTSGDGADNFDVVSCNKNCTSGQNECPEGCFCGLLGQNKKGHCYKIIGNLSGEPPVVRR
# [3] = molecular target: T3, P1172_IXORI (Ixodes ricinus) (UniProt V5I2G9); assay: as above
# T3 sequence: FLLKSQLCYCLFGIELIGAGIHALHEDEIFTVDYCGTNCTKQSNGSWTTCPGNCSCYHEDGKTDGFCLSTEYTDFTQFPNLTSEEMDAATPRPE
# [4] = molecular target: P1078_IXORI (Ixodes ricinus); assay: as above
# [5] = molecular target: P1086_IXORI (Ixodes ricinus); assay: as above
# [6] = molecular target: P1090_IXORI (Ixodes ricinus); assay: as above
# [7] = molecular target: P1124_IXORI (Ixodes ricinus); assay: as above
# [8] = molecular target: T4, P1126_AMBCA (Amblyomma cajennense); assay: as above
# T4 sequence: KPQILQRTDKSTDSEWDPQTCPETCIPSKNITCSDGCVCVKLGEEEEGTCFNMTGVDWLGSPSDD
# [9] = molecular target: T5, P1142_AMBCA (Amblyomma cajennense); assay: as above
# T5 sequence: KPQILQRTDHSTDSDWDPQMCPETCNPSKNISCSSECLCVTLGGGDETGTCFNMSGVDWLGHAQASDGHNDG
# [10] = molecular target: P942_IXORI (Ixodes ricinus); assay: as above
# [11] = molecular target: T6, EVA3_RHISA displayed on yeast (Rhipicephalus sanguineus) (UniProt P0C8E8); assay: flow cytometry on cells; yeast surface display; individual yeast clones displaying an evasin labelled with biotinylated chemokine plus streptavidin-AF647, against streptavidin-AF647 alone or control yeast with the display tag alone; only the binder purified
# T6 sequence: T2 sequence
# [12] = molecular target: T7, P1172_IXORI displayed on yeast (Ixodes ricinus) (UniProt V5I2G9); assay: as above
# T7 sequence: T3 sequence
# [13] = molecular target: P1080_IXORI displayed on yeast (Ixodes ricinus); assay: as above
# [14] = molecular target: T8, P1126_AMBCA displayed on yeast (Amblyomma cajennense); assay: as above
# T8 sequence: T4 sequence
# [15] = molecular target: T9, P1142_AMBCA displayed on yeast (Amblyomma cajennense); assay: as above
# T9 sequence: T5 sequence
Substance,binding [1],binding [2],binding [3],binding [8],binding [9],other results
CXC-motif chemokine ligand 10 (CXCL10) (from UniProt P02778 22-98),no binding (tested: 300 nM),–,–,–,–,–
CXCL11 (from UniProt O14625 22-94) (ligand),no binding (tested: 300 nM),no binding (tested: 300 nM),no binding (tested: 300 nM),–,–,–
CXCL12 (from UniProt P48061 22-93) (ligand),no binding (tested: 300 nM),no binding (tested: 300 nM),no binding (tested: 300 nM),no binding (tested: 300 nM),no binding (tested: 300 nM),binding [4]: no binding (tested: 300 nM); binding [5]: binds; binding [6]: no binding (tested: 300 nM); binding [7]: binds; binding [10]: no binding (tested: 300 nM)
CXCL13 (from UniProt O43927 23-109) (ligand),no binding (tested: 300 nM),no binding (tested: 300 nM),no binding (tested: 300 nM),no binding (tested: 300 nM),no binding (tested: 300 nM),–
biotinylated CXCL1 (from UniProt P09341 35-107) (ligand),–,–,–,–,–,binding [11]: binds; binding [12]: binds
biotinylated CXCL10 (from UniProt P02778 22-98) (ligand),–,–,–,–,–,binding [13]: binds; binding [14]: binds; binding [15]: binds
